# Source: PubChem BioAssay AID1508623 (National Center for Advancing Translational Sciences (NCATS), 2021)
# Hit rate of the full screen: of about 48,000 compounds, about 450 (0.94%) were called active. The inconclusive results got no clear call from the source; some entries with a clear call stand among them for comparison. Calls come from the whole dose curve; as a rule, active = well fitted inhibition curve with a large enough effect; inconclusive = small, poorly fitted or top-dose-only effect; inactive = no such curve, though single readings can be large or run the other way. Where the call is inconclusive, the potency comes from a doubtful curve fit.
# Experiment: Primary qHTS for Identification of Small Molecule Inhibitors of Huntingtin Promoter Activity; note: nearly all actives have a fitted effect of over 50% in size
# Conditions: HEK293 HTT promoter firefly luciferase reporter (activity 0% = vehicle and -100% = no light), 24 h; activity change, negative = inhibition: at 57.5 µM (top of the series)
# Method in brief: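 HEK293 luciferase promoter-reporter cells (2,500/well) plated 24 h, then compounds added at up to 57.5 uM final for 24 h at 37 °C. Firefly luminescence by Dual-Glo, normalized to vehicle (0%) and zero RLU (-100%).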
# Potency is the fitted concentration of half-maximal effect; tags give direction and shape of the fitted curve.
SMILES,Potency,"activity change, negative = inhibition"
CNC(=O)C1CCC(Cn2c(=O)c3sccc3n(CC(=O)Nc3ccc(C)c(C)c3)c2=O)CC1 (configuration not stated),"inconclusive: 22.4 µM [inhibitor, partial curve]",
COc1ccc(CCNC(=O)C2CCC(CNS(=O)(=O)c3ccc(C)cc3)CC2)cc1OC (configuration not stated),"inconclusive: 14.1 µM [inhibitor, partial curve, poor fit]",
C[C@@H]1COC(Nc2ccc3ncnc(Nc4ccc(OCc5nccs5)c(Cl)c4)c3c2)=N1,"inconclusive: 3.06 µM [inhibitor, full curve, poor fit]",
CC(=O)N1CCc2nc3sc(C(=O)c4ccc(F)cc4)c(N)c3c(C(F)(F)F)c2C1,"inconclusive: 39.8 µM [inhibitor, partial curve, poor fit]",
CCc1ccc(NC(=O)C(=O)NCC(c2cccnc2)N2CCN(c3ccc(F)cc3)CC2)cc1 (configuration not stated),"inconclusive: 31.6 µM [inhibitor, single point]",
Cc1nnc(N2CCC(C(=O)N3CCCCC3)CC2)c2nn(-c3ccc(Cl)cc3)c(C)c12,inactive,
CCc1ccc(NC(=O)Cn2c(=O)n(CCCCC(=O)NCc3ccc4c(c3)OCO4)c(=O)c3ccccc32)cc1,"inconclusive: 31.6 µM [inhibitor, partial curve, poor fit]",
CCOc1ccccc1Nc1sc(C(=O)c2ccccc2)c(N)c1C(=O)Nc1ccccc1,"inconclusive: 14.1 µM [inhibitor, partial curve, poor fit]",
CCOc1ccccc1NC(=O)c1ccc2c(Cl)c3c(nc2c1)CCC3,inactive,
CC(C)(C)c1ccc(C(=O)Nc2ccc3c(c2)CCCN3C(=O)c2cccs2)cc1,"inconclusive: 7.08 µM [inhibitor, partial curve, poor fit]",
CCOC(=O)c1ccc(NC(=O)/C(C#N)=C/c2ccc(OC)cc2)cc1,,inactive: -13.1% [at 11.5 µM]
Cc1ccc(CSc2oc(-c3ccco3)nc2S(=O)(=O)c2ccc(C)cc2)cc1,"inconclusive: 14.1 µM [inhibitor, partial curve, poor fit]",
COc1cc(/C=C(\C#N)c2nc3ccccc3[nH]2)cc(Cl)c1OCc1ccccc1Cl,"inconclusive: 14.1 µM [inhibitor, partial curve, poor fit]",
O=C(CCC1N=C2c3ccccc3N=C(SCc3ccc(Cl)cc3)N2C1=O)NCCc1ccccc1 (configuration not stated),inactive,
Fc1ccc(C(NCCc2ccc(Cl)cc2)c2nnc(-c3ccccc3)o2)c(Cl)c1 (configuration not stated),"inconclusive: 22.4 µM [inhibitor, partial curve]",
CCc1cccc(C)c1NC(=O)c1cc(S(=O)(=O)NCc2ccccc2Cl)ccc1F,"inconclusive: 28.2 µM [inhibitor, single point]",
CCCn1c2ccccc2c2cnn(CC(=O)N(C)c3ccccc3CC)c(=O)c21,"inconclusive: 25.1 µM [inhibitor, single point]",
CCCSCCCNC(=O)C1CCCN(c2nn3cc(-c4ccc(OC)cc4)nc3s2)C1 (configuration not stated),"inconclusive: 39.8 µM [inhibitor, single point]",
COc1ccc(CCNC(=O)Cn2c(=O)nc(-c3ccccc3)c3ccccc32)cc1OC,"inconclusive: 39.8 µM [inhibitor, single point]",

SMILES,Potency,"activity change, negative = inhibition"
Cc1ccccc1NC(=O)N1CCc2c(sc3c2CCCC3)C1c1ccccc1 (configuration not stated),"inconclusive: 39.8 µM [inhibitor, partial curve, poor fit]",
CCS(=O)(=O)c1ncc(N(Cc2ccccc2)Cc2ccco2)c(C(=O)Nc2ccc(C)c(C)c2)n1,"inconclusive: 14.1 µM [inhibitor, partial curve]",
COCCNC(=O)CCc1c(C)nc2c(-c3ccc(F)cc3)c(C)nn2c1C,"inconclusive: 25.1 µM [inhibitor, partial curve, poor fit]",
COc1ccc(CCNC(=O)CCCCn2c(=O)c3ccccc3n(Cc3ccccc3C)c2=O)cc1OC,"inconclusive: 39.8 µM [inhibitor, single point]",
CCC(=O)Nc1ccc(CC)cc1-c1nc2ccccc2n(CC(=O)Nc2cccc(Cl)c2)c1=O,"inconclusive: 25.1 µM [inhibitor, single point]",
COc1cccc(NC(=O)Cn2nnc(-c3nc(-c4ccccc4)no3)c2N)c1,"inconclusive: 17.8 µM [inhibitor, partial curve, poor fit]",
O=C(Cn1c(=O)oc2cc(Cl)ccc21)Nc1cccc(C(F)(F)F)c1,"inconclusive: 25.1 µM [inhibitor, single point]",
Cc1ccc(-n2nc(CO)c(C(=O)NC(C)CCCc3ccccc3)n2)cc1C (configuration not stated),"inconclusive: 39.8 µM [inhibitor, single point]",
CCOc1ccccc1NC(=O)CCc1c(C)nn(-c2ccc(N3CCOCC3)nn2)c1C,"inconclusive: 39.8 µM [inhibitor, single point]",
Cc1c(Cl)cccc1NC(=O)c1noc2c1CCCC2,inactive,
CCC(=O)N1c2ccccc2CC1C(=O)NCCN1CCN(c2cccc(C(F)(F)F)c2)CC1 (configuration not stated),"inconclusive: 35.5 µM [inhibitor, partial curve, poor fit]",
Cc1ccc(C)c(N2CCN(C(=O)C3CCCN(S(=O)(=O)c4cccc5nsnc45)C3)CC2)c1 (configuration not stated),"inconclusive: 10 µM [inhibitor, partial curve, poor fit]",
COc1ccc(C)cc1NC(=O)Cn1c(=O)cc(C)c2c(C)nn(C)c21,active: 2 µM,
Cc1ccc(C(=O)Nc2cccc(O)c2)cc1S(=O)(=O)N1CCCCCC1,inactive,
Cc1ccc(Nc2nc3c(S(=O)(=O)c4ccccc4)nnn3c3ccsc23)c(C)c1,inactive,
CCN(CC)CCCNC(=O)CSc1c2c(nc3cc(Cl)ccc13)CCCC2,"inconclusive: 39.8 µM [inhibitor, single point]",
Cc1c(C(=O)Nc2cccc(C(F)(F)F)c2)sc2nc3n(c(=O)c12)CCCC3,inactive,
COc1cccc2sc(N(Cc3cccnc3)C(=O)Cc3ccccc3)nc12,"inconclusive: 10 µM [inhibitor, partial curve, poor fit]",
